Reference: paper PMC4336329 (PLoS ONE, 2015)
Screen size: about 310,000 compounds; about 14,000 (4.5%) showed an effect of 50% or more. Effects have a minus sign here. The list shows a part of the results.

The compounds below were run against human ether-à-go-go-related gene (hERG) potassium channel (human, UniProt Q12809) (assay: primary screen, population patch clamp on CHO cells stably expressing hERG).
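Further: peak tail current of the secondary pulse compared with the same well before compound.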

Chain of human ether-à-go-go-related gene (hERG) potassium channel (Q12809 whole entry, looked up): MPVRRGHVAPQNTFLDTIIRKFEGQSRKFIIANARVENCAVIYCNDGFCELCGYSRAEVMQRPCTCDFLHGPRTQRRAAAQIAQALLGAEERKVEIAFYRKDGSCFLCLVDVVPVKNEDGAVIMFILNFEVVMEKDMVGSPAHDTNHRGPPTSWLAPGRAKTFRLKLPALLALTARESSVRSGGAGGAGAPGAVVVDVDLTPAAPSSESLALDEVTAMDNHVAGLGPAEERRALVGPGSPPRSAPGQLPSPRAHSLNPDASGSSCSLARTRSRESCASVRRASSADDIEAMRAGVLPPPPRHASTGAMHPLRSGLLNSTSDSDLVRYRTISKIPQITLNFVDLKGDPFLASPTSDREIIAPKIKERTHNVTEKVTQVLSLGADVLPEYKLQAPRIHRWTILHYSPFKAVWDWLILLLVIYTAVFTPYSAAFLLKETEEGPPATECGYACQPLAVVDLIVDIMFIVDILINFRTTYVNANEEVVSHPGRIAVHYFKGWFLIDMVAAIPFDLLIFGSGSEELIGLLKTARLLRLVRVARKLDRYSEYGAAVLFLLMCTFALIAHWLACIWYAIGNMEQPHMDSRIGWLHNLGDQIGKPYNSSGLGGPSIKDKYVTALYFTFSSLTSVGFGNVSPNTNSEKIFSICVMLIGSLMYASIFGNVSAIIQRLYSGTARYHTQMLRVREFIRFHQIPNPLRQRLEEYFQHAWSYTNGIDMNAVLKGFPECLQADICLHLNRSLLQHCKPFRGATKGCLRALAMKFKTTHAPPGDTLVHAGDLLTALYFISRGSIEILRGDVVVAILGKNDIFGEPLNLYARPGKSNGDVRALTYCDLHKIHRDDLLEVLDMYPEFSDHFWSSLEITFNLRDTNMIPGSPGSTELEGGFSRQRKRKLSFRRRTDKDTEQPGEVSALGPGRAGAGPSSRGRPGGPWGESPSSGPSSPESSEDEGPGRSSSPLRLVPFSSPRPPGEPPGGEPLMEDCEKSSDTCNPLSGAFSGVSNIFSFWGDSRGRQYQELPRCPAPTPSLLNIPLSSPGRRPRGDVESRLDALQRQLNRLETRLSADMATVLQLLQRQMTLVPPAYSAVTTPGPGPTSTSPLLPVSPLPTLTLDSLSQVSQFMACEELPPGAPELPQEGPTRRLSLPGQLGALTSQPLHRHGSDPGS

Row | SMILES | hERG current change (%, negative = inhibition) at 10uM
1 | O=C(NCc1cc(C(F)(F)F)cc(C(F)(F)F)c1)C1CC(c2cccc([N+](=O)[O-])c2)=NO1 (stereo not shown) | 11.8%
2 | Cc1ccc(CN2CCc3c(OCC(=O)Nc4cc(C)ccc4C)cccc3C2=O)cc1 | 4.23%
3 | Cc1cccc(NC(=O)c2nc[nH]c2C(=O)N[C@@H](C)C(=O)OC(C)(C)C)c1 | 16.4%
4 | COCCN=C1Sc2nc3c(C)cccc3cc2CN1Cc1ccco1 | 8.49%
5 | COc1ccc(-c2nnn(Cc3ccccc3)n2)cc1 | 8.24%
6 | COc1ccc(S(=O)(=O)Nc2ccc(NC(C)=O)cc2)cc1Br | -12.1%
7 | COC(=O)CCC/C=C1/SCC(NC(=O)c2ccccc2)C1O (stereo not shown) | 1.49%
8 | Nc1nnnn1/N=C/c1ccccc1C(F)(F)F | -9.86%
9 | CCC(C)c1ccccc1N1CC(C(=O)Nc2ccc(C)c(S(=O)(=O)N3CCOCC3)c2)CC1=O (stereo not shown) | -6.77%
10 | O=C(CNc1cccc2ccccc12)N/N=C/c1ccc([N+](=O)[O-])o1 | -13.3%
11 | Cc1cc(C)cc(N(C(=O)c2csnn2)C(C(=O)NC2CCCC2)c2ccccn2)c1 (stereo not shown) | 6.89%
12 | CN(C)Cc1ccccc1Sc1ccc(O)cc1O.O.O=C(O)/C=C\C(=O)O | -3.84%
13 | COCC(C)NS(=O)(=O)c1ccc(OC)cc1 (stereo not shown) | 8.55%
14 | CC1CCN(c2nc3c(c(=O)n(C)c(=O)n3C)n2CCSc2nc3ccccc3s2)CC1 | -5.51%
15 | CCCc1nc2oc(C(=O)c3ccccc3)c(N)c2c2c1COC(C)(C)C2 | -38%
16 | O=C(Nc1nccs1)c1cc(-c2ccccc2)nn1-c1ccccc1 | 1.92%
17 | O=C(CSc1nc(-c2ccco2)cc(C(F)(F)F)n1)Nc1cccnc1 | 34.1%
18 | COc1ccc(CCNC(=O)CC2SC(=NCCc3ccccc3)NC2=O)cc1 (stereo not shown) | -6.72%
19 | C/C(N)=C(/C#N)C(=O)COC(=O)c1ccncc1 | 2.13%
20 | CC12CCC(=O)N1C(C(=O)N1CCN(c3ccccc3)CC1)CS2 (stereo not shown) | -22.7%
21 | O=C(Nc1ccc2ccccc2c1)/C(=C\c1ccc2c(c1)OCO2)NC(=O)c1ccco1 | -13%

Row | SMILES | hERG current change (%, negative = inhibition) at 10uM
22 | CCOC(=O)C1CCCN(C(=O)CC(c2ccccc2)c2ccccc2)C1 (stereo not shown) | -21.3%
23 | O=C(CCc1ccccc1)NCc1ccccn1 | -9.56%
24 | COc1ccc(C(=O)NNC(=O)CSc2nnc(-c3cccnc3)o2)cc1 | 19%
25 | COc1ccc(Br)cc1-c1nc(CCl)cs1.Cl | 6.83%
26 | COc1ccc(NC(=S)N2CCN(S(=O)(=O)c3ccc(OC)cc3)CC2)cc1 | -10.2%
27 | CCN(CC(=O)Nc1ccc(NC(C)=O)cc1)C(=O)c1cc(S(=O)(=O)N2CCCCCC2)ccc1OC | -6.8%
28 | CC(=O)c1cc(C)ccc1OC(=O)c1cccc2nc(C)oc12 | 14.4%
29 | C=CCn1c(NCc2ccc(N(C)C)cc2)nc2ccccc21 | -11.3%
30 | CCOc1ccc(OCC)c(S(=O)(=O)N2CCCCC2)c1 | -12.2%
31 | CCCCOc1ccc(N(CC(=O)NCc2ccccc2)C(=O)c2csnn2)cc1 | -22.1%
32 | COc1ccc(C(=O)NCCn2cc(SCC(=O)N3CCOCC3)c3ccccc32)cc1 | -15%
33 | COC(=O)[C@H](CCSC)NC(=O)c1cccnc1SC | 5.13%
34 | NC(=O)C1CCN(c2oc(-c3ccccc3F)nc2S(=O)(=O)c2ccc(Cl)cc2)CC1 | 1.46%
35 | Cc1c(N=Nc2c(O)[nH]c(=O)[nH]c2=O)c(=O)n(-c2ccccc2)n1C | 15.4%
36 | CS(=O)(=O)N1CCC(Oc2ccccc2C(=O)N2CCC[C@H]2CO)CC1 | 20.5%
37 | CCCCN(C)CCN1C(=O)C2C(C(=O)Nc3ccc(C)cc3)C3C=CC2(O3)C1C(=O)NC1CCCCC1 (stereo not shown) | -26.1%
38 | COc1cc(OC)cc(C(=O)NCC(=O)N2CCCCC2)c1 | 9.25%
39 | Cc1cc(O)c2c(c1)C(=O)C13C(=C2O)C(=O)[C@H]2[C@@H](O)[C@@H]1[C@H]1[C@H](O)[C@@H]3C(=O)C3=C(O)c4c(O)cc(C)cc4C(=O)C312 (stereo partly shown) | 13.9%
40 | CCN(CCN(C)C)C(=O)C1CCN(S(=O)(=O)c2c(C)noc2/C=C/c2ccccc2F)CC1 | 1.98%
41 | CN(Cc1ccccc1N1CCCC1)C(=O)c1cc2cc(Cl)ccc2o1 | -13.4%
42 | CCCCC(=O)NS(=O)(=O)c1ccc(N=NN2CCOCC2)cc1 | 4.99%

Row | SMILES | hERG current change (%, negative = inhibition) at 10uM
43 | C[C@@H]1O[C@@H](O[C@H]2C[C@@H](O)[C@]3(CO)[C@H]4[C@H](O)C[C@]5(C)[C@@H](C6=CC(=O)OC6)CC[C@]5(O)[C@@H]4CC[C@]3(O)C2)[C@H](O)[C@H](O)[C@H]1O | 14.6%
44 | CC(C)CCN1CCC(n2nccc2NC(=O)c2ccc3c(c2)OCO3)CC1 | -5.16%
45 | CC1CCCCC1NC(=O)CNC(=S)N1CC2CC(C1)c1cccc(=O)n1C2 (stereo not shown) | 7.4%
46 | O=C(O)c1cccc(NS(=O)(=O)c2ccc(Cl)c(C(=O)O)c2)c1 | 30.8%
47 | COc1ccc(CNC(=O)C2CCCN(Cc3nc(-c4cccc(C)c4)oc3C)C2)cc1 (stereo not shown) | -63.8%
48 | c1ccc2c(c1)CCc1c-2nc2ccccc2c1N1CCOCC1 | -5.95%
49 | COc1ccc(OC)c(NC(=O)CSc2nnc(C3CCCCC3)n2N)c1 | -17.4%
50 | Cc1ccc(-c2nnn(CC(=O)N(CC(=O)NC3CCCC3)c3ccc(F)cc3)n2)o1 | 6.41%
51 | COc1cc(CNCc2ccco2)ccc1OCc1ccccc1 | -23.3%
52 | COc1ccccc1NS(=O)(=O)c1ccc(Cl)c(NC(=S)NC(=O)C2CCCC2)c1 | -4.67%
53 | Cc1ccc(C(C(=O)NC2CCCC2)N(Cc2ccc3c(c2)OCO3)C(=O)c2snc(C(N)=O)c2N)cc1 (stereo not shown) | 10.7%
54 | CCN(CC)c1ccc(NC(=O)C2CCCN(S(=O)(=O)c3cnc[nH]3)C2)c(C)c1 (stereo not shown) | -6.63%
55 | COc1ccc(CN2CCNC(=O)C2CC(=O)NCC2CCOCC2)c(C)c1C (stereo not shown) | -19.6%
56 | O=c1[nH]c2c(Br)cnc([N+](=O)[O-])c2[nH]1 | -3.18%
57 | Cc1cc(C(=O)CN2C(=O)NC3(CCC(C)CC3)C2=O)c(C)n1C (stereo not shown) | -7.12%
58 | O=C(CNC(=O)c1ccccc1F)NCCc1ccc(Cl)cc1Cl | -0.034%
59 | Fc1cnc(N2CCN(c3ccccc3)CC2)nc1N1CCN(c2ccccc2)CC1 | -18.2%
60 | CC(=O)Nc1ccccc1/C=C/c1ccc2c(C)ccc(O)c2n1 | 5.05%
61 | COc1cc(CCC(=O)NC2(C)CCS(=O)(=O)C2)cc(OC)c1OC (stereo not shown) | -6.48%
62 | CCOCCCn1c(SCC(=O)Nc2cccc(S(=O)(=O)NC3=NCCCCC3)c2)nc2ccccc2c1=O | -48.2%
63 | Cc1ccc(NC(=O)CCC(=O)Nc2ccc(C)cc2)cc1 | 12.2%

Row | SMILES | hERG current change (%, negative = inhibition) at 10uM
64 | CCOc1ccc(C(C)C)cc1S(=O)(=O)n1nc(C)cc1C | 0.728%
65 | O=C1c2ccccc2C2NC(=O)C3(CCCCC3)N12 (stereo not shown) | 7.54%
66 | CCCn1c(SCc2ccc(C(=O)OC)o2)nc2ccccc2c1=O | -14.9%
67 | CCc1cc(Br)ccc1NC(=O)C1CCCO1 (stereo not shown) | -7.92%
68 | CCCCCC(=O)N(Cc1ccccc1)c1c(N)n(CCOC)c(=O)[nH]c1=O | 12.9%
69 | Oc1ccccc1CNc1nc2ccccc2n1CCN1CCCCC1 | -2.31%
70 | O=C(Nc1ccccc1C(F)(F)F)c1c(F)cccc1Cl | 3.77%
71 | Cc1ccc(S(=O)(=O)/N=C(\CSC(N)=O)Nc2ccccc2)cc1 | 3.04%
72 | CCOc1ccc(Nc2nc(N)nc(CSC(=S)N3CCN(c4ccccc4)CC3)n2)cc1 | 17.2%
73 | O=C(Nc1ccc(S(=O)(=O)Nc2ccccn2)cc1)c1ccc(Cl)cc1Cl | 2.92%
74 | Cc1ccc(CS(=O)Cc2ccc(C(=O)N3CCN(c4ccc(F)cc4)CC3)o2)cc1 (stereo not shown) | -52.9%
75 | COc1ccccc1N1C(=NC(=O)CCc2ccccc2)SC2CS(=O)(=O)CC21 (stereo not shown) | 14%
76 | CCn1cc(/C=C2\SC(=O)N(CC(=O)Nc3ccc4c(c3)OCO4)C2=O)c2ccccc21 | 0.0955%
77 | COc1ccc2c(=O)c3c(=O)n(Cc4ccco4)c(-c4ccc(C)cc4)nc3oc2c1 | -53.3%
78 | CCC(=NCCc1c[nH]c2ccccc12)c1c(O)n(-c2ccc(C)cc2)c(=O)[nH]c1=O | 14.3%
79 | CCCNC(=O)c1ccc2c(c1)ncn2-c1cc(C)cc(C)c1 | -55.1%
80 | COc1cc([N+](=O)[O-])ccc1NC(=O)C1C2C=CC(C2)C1C(=O)O (stereo not shown) | 24.3%
81 | CC(/C=N/NC(=O)c1cc(-c2ccc(C)s2)[nH]n1)=C\c1ccccc1 | -0.45%
82 | CCOC(=O)Cc1csc(NC(=O)c2c(-c3c(Cl)cccc3Cl)noc2C)n1 | -4.82%
